{"source": "ChEMBL document CHEMBL4888484", "about": "“Replenishing the malaria drug discovery pipeline: Screening and hit evaluation of the MMV Hit Generation Library 1 (HGL1) against asexual blood stage Plasmodium falciparum ,using a nano luciferase reporter read-out” (2022)", "note": "Hit rate of the full screen: of about 150,000 compounds, about 540 (0.36%) showed an effect of 50% or more. Some of the results follow.", "data": [{"system": "Plasmodium falciparum", "experiment": "Primary screen in NF54 nanoGlo assay, in single point, at 2uM, 72h; a lower Z score goes with more inhibition", "type": "functional, Erythrocyte", "settings": "timepoint 72 hour", "units": {"% Inhibition": "%"}, "values": [{"smiles": "O=C(CNC(=O)NCC1CCCC1)Nc1cccc2c1OCO2", "% Inhibition": -7, "Z score": 0.84}, {"smiles": "Cc1ccc(S(=O)(=O)NC[C@H]2O[C@@H](CO)[C@@H](O)[C@H]2N2CCOCC2)cc1", "% Inhibition": 19, "Z score": -2.24}, {"smiles": "COc1cc(=O)n2c(c1C(=O)N1CCc3ccccc3C1)CCN(C(=O)c1[nH]c(C)cc1C)CC2", "% Inhibition": 7, "Z score": -0.79}, {"smiles": "CNC(=O)C(C)CN(C)C(=O)Nc1ccc(N2CCC(C)C2)cc1", "note": "(configuration not stated)", "% Inhibition": -6, "Z score": 0.49}, {"smiles": "Cc1ncsc1C(=O)OCc1ncnn1CC(C)C", "% Inhibition": -3, "Z score": 0.34}, {"smiles": "Clc1cnc(N2CC[C@]3(CCOC3)C2)c(Cl)c1", "% Inhibition": -9, "Z score": 1.01}, {"smiles": "CN1CCN(C)C2(CCN(c3ncccc3C(=O)N3CCCC3)CC2)C1", "% Inhibition": -18, "Z score": 1.93}, {"smiles": "O=C(NC1(c2cccs2)CCCC1)c1ccsc1", "% Inhibition": 8, "Z score": -1.07}, {"smiles": "COc1cccc(OCCc2ccccc2-c2nnc(C)o2)c1", "% Inhibition": 6, "Z score": -1.32}, {"smiles": "CCO[C@@H](C)c1nc(Cc2nc(-c3ccc(OC)cc3)no2)cs1", "% Inhibition": -5, "Z score": 0.52}, {"smiles": "CCOC(=O)c1nc(NC2CCCCCC2)c2c(C)noc2n1", "% Inhibition": 5, "Z score": -0.96}, {"smiles": "COCCN1CC[C@H](CNS(=O)(=O)c2c(C)cc(C)c3nonc23)C1", "% Inhibition": 8, "Z score": -1.1}, {"smiles": "COc1cccc(CNC(=O)N2CCc3c(F)cc(F)cc3C2)n1", "% Inhibition": -30, "Z score": 3.46}, {"smiles": "FC(F)(F)c1ccc(CN(CCN2CCOCC2)[C@H]2CCCNC2)cc1", "% Inhibition": 7, "Z score": -0.89}, {"smiles": "CCNC(=O)C1=CCN(C(=O)c2cccc(F)c2)CC1", "% Inhibition": 7, "Z score": -1.18}, {"smiles": "C#CC(CC)(CC)NS(=O)(=O)c1ccc(C)cc1C", "% Inhibition": -5, "Z score": 1.06}, {"smiles": "CN1N=C(C(=O)N[C@H]2CCOc3ccccc32)CCC1=O", "% Inhibition": -10, "Z score": 1.89}, {"smiles": "c1ccc(Oc2nc(NCc3ccco3)nc(NCc3ccco3)n2)cc1", "% Inhibition": -16, "Z score": 1.74}, {"smiles": "CC(C)(C)c1ccc(NC(=O)c2ccc(C(=O)c3ccccc3)o2)cc1", "% Inhibition": -3, "Z score": 0.49}, {"smiles": "CC(=O)Nc1c(-c2ccc(F)cc2)c(C)nn1-c1ccc(C(=O)Nc2cccc(F)c2)cc1", "% Inhibition": -5, "Z score": 0.93}, {"smiles": "Cc1cccnc1[C@H](C)NC(=O)CNC(=O)N(C)C", "% Inhibition": -9, "Z score": 1.68}, {"smiles": "CCN(C[C@@H]1CCCN2CCCC[C@H]12)C(=O)CCc1cc(OC)no1", "% Inhibition": -14, "Z score": 1.8}, {"smiles": "O=C1CN2C(=O)[C@]3(CCN(C(=O)CCC(F)(F)F)[C@H]3c3cccc(c3)OCCCN1)c1ccccc12", "% Inhibition": -5, "Z score": 0.56}, {"smiles": "CC(C)CCNC(=O)[C@]1(C)Cn2c(cc3ccccc32)C(=O)N1C1CCN(Cc2ccccc2)CC1", "% Inhibition": -4, "Z score": 0.58}, {"smiles": "CCCC(=O)NCC(=O)N1CCC[C@H](N(C)C(=O)c2ccc(C(N)=O)nc2)C1", "% Inhibition": 21, "Z score": -2.67}, {"smiles": "Cc1cc(C)c(S(=O)(=O)NCC2CCC(C(=O)N3CCc4ccccc4C3)CC2)c(C)c1", "note": "(configuration not stated)", "% Inhibition": -7, "Z score": 1.22}, {"smiles": "Cc1ncc(C(=O)N2CCC[C@H](N(CCCN3CCCC3)C(=O)C(C)C)C2)cn1", "% Inhibition": 1, "Z score": -0.09}, {"smiles": "NS(=O)(=O)c1ccc(-c2noc(C[C@H]3CCc4ccccc4C3)n2)cc1", "% Inhibition": 1, "Z score": -0.28}, {"smiles": "COc1ccccc1CCC(=O)N1CCCCN(C)C(=O)[C@H](C)NC(=O)COc2cc(O)cc(c2)C(=O)NCCC1", "% Inhibition": -1, "Z score": 0.12}, {"smiles": "FC(F)(F)c1ccc(-c2c[nH]c([C@@H]3COCCN3C3CCNCC3)n2)cc1", "% Inhibition": -3, "Z score": 0.52}, {"smiles": "CS(=O)(=O)N(Cc1cccnc1)[C@H]1CCCN(Cc2ccncc2F)C1", "% Inhibition": -13, "Z score": 1.17}, {"smiles": "CC1(C)CC(N2C(=O)c3cccc(N4CCCC(C(=O)N5CCN(C(=O)c6ccco6)CC5)C4)c3C2=O)CCO1", "note": "(configuration not stated)", "% Inhibition": 13, "Z score": -1.72}, {"smiles": "CN(Cc1ccco1)c1ncccc1C#N", "% Inhibition": -5, "Z score": 0.51}, {"smiles": "Cc1cc(OCc2nccs2)c2cnn(C)c2n1", "% Inhibition": -1, "Z score": 0.12}, {"smiles": "Cc1cc(OCC(=O)N2CCCC[C@@H]2CCN2CCCCCC2)ccc1Cl", "% Inhibition": -9, "Z score": 1.1}, {"smiles": "O=C(NCC1CCN(C(=O)c2cccs2)CC1)c1cccs1", "% Inhibition": 9, "Z score": -1.3}, {"smiles": "O=C(c1c2c(nc3ccccc13)CCC2)N1CCC[C@H](C(F)(F)F)C1", "% Inhibition": 0, "Z score": -0.09}, {"smiles": "CCOc1ccc(S(=O)(=O)N(C)Cc2ccc(Cl)cc2)cc1-c1nc(C(C)C)no1", "% Inhibition": -2, "Z score": 0.43}, {"smiles": "CC1CC2CCCCC2N1S(=O)(=O)c1cccnc1", "note": "(configuration not stated)", "% Inhibition": -3, "Z score": 0.43}, {"smiles": "C[C@H](NCc1cc(O)nc(C2CC2)n1)c1ccc(F)cc1F", "% Inhibition": -10, "Z score": 1.5}, {"smiles": "NC[C@H]1CCCN(Cc2cc3cc4c(cc3nc2-c2ccc(Cl)cc2)OCO4)C1", "% Inhibition": 0, "Z score": -0.03}]}]}
